The source of these data is the supplement of paper PMC4967469.

Assay in all cases: Viability of human cancer cell lines after 72 h of drug (GDSC screen)
Compound in one assay: C=C(c1ccc(C(=O)O)cc1)c1cc2c(cc1C)C(C)(C)CCC2(C)C [Bexarotene]
To be noted: top dose 8 µM. The method, then:
(§1)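 Human cancer cell lines in 384-well plates, medium with 10% serum, drug for 72 h over a 256-fold dose range (nine 2-fold or five 4-fold steps up to the top dose). Adherent lines were fixed and stained with the nucleic acid dye Syto60, suspension lines read with resazurin; signal relative to control wells, capped at 0 and 100%. One two-parameter sigmoid per drug and line, fitted in a mixed model over all curves with the slope shared within a line.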

Compound in another assay: COc1cc(C(=O)NC2CCN(C)CC2)ccc1Nc1ncc2c(n1)N(C1CCCC1)C(C)CC(=O)N2C [NPK76-II-72-1]
To be noted: top dose 10.24 µM; top dose inferred. The method, then: as §1

Compound in a further assay: COc1cc([C@@H]2c3cc4c(cc3[C@@H](O[C@@H]3O[C@@H]5CO[C@@H](C)O[C@H]5[C@H](O)[C@H]3O)[C@H]3COC(=O)[C@H]23)OCO4)cc(OC)c1O [Etoposide]
To be noted: top dose 16 µM. The method, then: as §1

Compound in the next assay: COc1ccc(C(=O)CC2(O)C(=O)Nc3c(Cl)ccc(Cl)c32)cc1 [YK 4-279]
The settings on record: top dose 10 µM. On the procedure:
as §1

Compound in a further assay: Cc1ccc2nc(NCCN)c3ncc(C)n3c2c1 [BMS-345541]
To be noted: top dose 16 µM. On the procedure: as §1

Compound in the next assay: NC(=O)Nc1cc(-c2cccc(F)c2)sc1C(=O)N[C@H]1CCCNC1 [AZD7762]
The settings on record: top dose 2 µM. The method, then:
as §1

Compound in a further assay: O=C(O)c1ccc(-c2c[nH]c3ncc(-c4ccccc4)cc23)cc1C1CCCC1 [GSK-650394]
The settings on record: top dose 16 µM; top dose inferred. The method, then:
as §1

Compound in a further assay: Oc1nc(-c2ccc(C(F)(F)F)cc2)nc2c1CSCC2 [XAV 939]
To be noted: top dose 5 µM; top dose inferred. On the procedure:
as §1

By IC50 is meant the dose at which the fit gives 50% viability; fits outside the tested doses are given as limits. For AUC the same curve is integrated over the 256-fold range of doses and scaled to a fraction; the more sensitive the line, the further below 1. For some assays here: An inferred top dose comes from the curve model; the source does not state it. Some results are limits rather than exact numbers.

For the cell line KNS-81-FD (glioma, adherent), the AUC with Bexarotene came to 0.938; in the assay with NPK76-II-72-1, 0.977; with Etoposide it was 0.925; with YK 4-279 it was 0.816; with BMS-345541, 0.97; with AZD7762, 0.893. Besides, the AUC worked out at 0.975 in the assay with GSK-650394 and 0.904 with XAV 939. Moreover, the IC50 with Bexarotene was greater than 8 µM; in the assay with NPK76-II-72-1, greater than 10.2 µM; with Etoposide, greater than 16 µM; in the assay with YK 4-279 it was 8.24 µM; with BMS-345541, greater than 16 µM; with AZD7762 it was greater than 2 µM. The IC50 with GSK-650394 is greater than 16 µM; with XAV 939, greater than 5 µM.
Turning to KON (head and neck, adherent), the AUC was found to be 0.959 with Bexarotene; 0.987 with NPK76-II-72-1; 0.449 in the assay with Etoposide; 0.655 with YK 4-279; 0.967 with BMS-345541; 0.299 with AZD7762. Moreover, the AUC with GSK-650394 was determined as 0.62; with XAV 939, 0.985. For the same cell line, the IC50 with Bexarotene was greater than 8 µM; in the assay with NPK76-II-72-1 it was greater than 10.2 µM; with Etoposide it was 0.73 µM; in the assay with YK 4-279, 1.67 µM; in the assay with BMS-345541, greater than 16 µM; with AZD7762 it was 0.0344 µM. The IC50 with GSK-650394 was 2.12 µM; with XAV 939, greater than 5 µM.
On to KOPN-8 (B-cell leukaemia, suspension), for which the AUC is 0.934 with Bexarotene; 0.789 in the assay with NPK76-II-72-1; 0.482 with Etoposide; 0.621 in the assay with YK 4-279; 0.887 with BMS-345541; 0.569 with AZD7762. Besides, the AUC in the assay with GSK-650394 came out at 0.853; in the assay with XAV 939 it was 0.986. For the same cell line, the IC50 with Bexarotene is greater than 8 µM; with NPK76-II-72-1, 3.83 µM; with Etoposide it was 0.898 µM; with YK 4-279, 1.27 µM; with BMS-345541, 13.4 µM; with AZD7762, 0.187 µM. In addition, the results for the IC50 in the assay with GSK-650394 and with XAV 939 were 9.87 µM and greater than 5 µM, respectively.
In the case of KS-1 (glioma, adherent), the AUC is 0.807 with Bexarotene; 0.862 in the assay with NPK76-II-72-1; 0.423 in the assay with Etoposide; 0.739 with YK 4-279; 0.865 with BMS-345541; 0.708 with AZD7762. Moreover, the AUC was 0.881 with GSK-650394 and 0.926 with XAV 939. In addition, the IC50 is 5.38 µM in the assay with Bexarotene; greater than 10.2 µM with NPK76-II-72-1; 0.583 µM with Etoposide; 3.65 µM with YK 4-279; greater than 16 µM with BMS-345541; 0.563 µM with AZD7762. The concentration for half-maximal inhibition (IC50) was greater than 16 µM in the assay with GSK-650394 and greater than 5 µM with XAV 939.
Turning to “KU812 (chronic myeloid leukaemia, suspension)”, the AUC in the assay with Bexarotene is 0.92; with NPK76-II-72-1, 0.386; in the assay with Etoposide it was 0.594; in the assay with YK 4-279, 0.841; in the assay with BMS-345541 it was 0.815; with AZD7762 it was 0.426. The AUC in the assay with GSK-650394 came out at 0.67; with XAV 939, 0.985. The IC50 with Bexarotene is greater than 8 µM; with NPK76-II-72-1, 0.32 µM; with Etoposide, 1.77 µM; with YK 4-279, 6.06 µM; in the assay with BMS-345541, 7.85 µM; in the assay with AZD7762 it was 0.0798 µM. Besides, the IC50 was 2.84 µM with GSK-650394 and greater than 5 µM in the assay with XAV 939.
On to KY821 (leukaemia, suspension), for which the AUC with Bexarotene turned out to be 0.982; in the assay with NPK76-II-72-1, 0.892; in the assay with Etoposide, 0.957; with YK 4-279 it was 0.732; in the assay with BMS-345541, 0.902; with AZD7762, 0.683. Further, the AUC with GSK-650394 turned out to be 0.989; in the assay with XAV 939, 0.99. The IC50 is greater than 8 µM with Bexarotene; 9.38 µM in the assay with NPK76-II-72-1; greater than 16 µM with Etoposide; 2.58 µM with YK 4-279; greater than 16 µM in the assay with BMS-345541; 0.377 µM in the assay with AZD7762. Besides, the IC50 with GSK-650394 was greater than 16 µM; with XAV 939 it was greater than 5 µM.
Consider KYM-1 (rhabdomyosarcoma, adherent), for which the AUC with Bexarotene came to 0.991; with NPK76-II-72-1 it was 0.95; with Etoposide, 0.826; with YK 4-279 it was 0.673; in the assay with BMS-345541, 0.991; with AZD7762, 0.548. Besides, the values for the AUC in the assay with GSK-650394 and with XAV 939 were 0.987 and 0.969, respectively. The IC50 in the assay with Bexarotene was greater than 8 µM; with NPK76-II-72-1, greater than 10.2 µM; with Etoposide it was 7.85 µM; with YK 4-279 it was 1.75 µM; with BMS-345541, greater than 16 µM; with AZD7762, 0.165 µM. Moreover, the IC50 with GSK-650394 was greater than 16 µM; with XAV 939, greater than 5 µM.
In the case of KYSE-50 (oesophagus, adherent), the AUC in the assay with Bexarotene stood at 0.912; with NPK76-II-72-1 it was 0.904; in the assay with Etoposide it was 0.442; with YK 4-279, 0.757; in the assay with BMS-345541, 0.868; with AZD7762 it was 0.798. The AUC in the assay with GSK-650394 was found to be 0.647; with XAV 939, 0.989. The IC50 with Bexarotene is greater than 8 µM; with NPK76-II-72-1, greater than 10.2 µM; with Etoposide, 0.706 µM; with YK 4-279 it was 3.17 µM; with BMS-345541, 12.5 µM; with AZD7762, 0.861 µM. In addition, the figures for the IC50 in the assay with GSK-650394 and in the assay with XAV 939 were 2.45 µM and greater than 5 µM, respectively.

What is called IC50 is the concentration at which inhibition is half-maximal.
